# In PubChem BioAssay (Tox21):
# “And” between values parts separate entries of the source, which are not always exact repeats. Identical values can stand only once. Inconclusive means that the source gave no clear call. Such entries were picked first, then a sample of the others. For part of these data: Where the call is inconclusive, the potency comes from a doubtful curve fit. A structure can be active in one record and inactive in another. The source made the active and inactive calls. Unless noted, calls follow the shape of the dose curve; as a rule, active = well fitted curve in the direction sought with a large enough effect in the repeat runs; inconclusive = weak or mixed curves; inactive = no such curve, though single readings can be large; an effect the other way counts as inactive or inconclusive.
# Assays:
# [1] = qHTS assay to identify small molecule agonists of H2AX (AID 1224845; active = well fitted activation curve with a large enough effect in the signal ratio in the repeat runs, not every such curve was filed as active; inconclusive = weak or mixed curves; the % refers to the signal ratio; as to activation (H2AX phosphorylation): % is scaled to controls: 0 for no effect and ±100 for the full control effect); settings: CHO-K1 phospho-H2AX Ser139 HTRF, 3 h; activation (H2AX phosphorylation): at 154 µM (top of the series) unless noted
# Procedure, shortened: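 Phospho-H2AX Ser139 measured by HTRF (ex 320 nm; em 665 and 620 nm) after 24 hr antibody incubation. Compounds, 15 concentrations, 0.76% DMSO, were applied to CHO-K1 cells for 3hr at 37C before lysis.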
# [2] = qHTS assay to identify small molecule agonists of the hypoxia (HIF-1) signaling pathway (AID 1224846; active = well fitted activation curve with a large enough effect in the signal ratio in the repeat runs, not every such curve was filed as active; inconclusive = weak or mixed curves; the % refers to the signal ratio; as to activation: % is scaled to controls: 0 for no effect and ±100 for the full control effect); settings: HRE-bla ME-180 cells, beta-lactamase ratio, 17 h; activation: at 76.8 µM (top of the series) unless noted
# Procedure, shortened: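 Measured by blue/green FRET after loading CCF4-AM: beta-lactamase expressed from a hypoxia response element in ME-180 cells. Test agents were delivered in DMSO and left 17 hrs; cells had been plated 5 hrs earlier in low-serum (0.5% dialyzed FBS) medium.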
# [3] = qHTS RealTime-Glo MT Cell Viability Assay in HepG2 cells - 24 hour (AID 1224867); also: nearly all actives have a fitted effect of over 50% in size
# Procedure, shortened: (§1)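 Tox21 10K library screened in qHTS format on HepG2 cells carrying RealTime-Glo reagents. Compounds were added after a 5 h preincubation, and the luminescent signal from continuous culture was measured repeatedly during 40 h treatment.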
# [4] = qHTS RealTime-Glo MT Cell Viability Assay in HEK293 cells - 32 hour (AID 1224868); also: nearly all actives have a fitted effect of over 50% in size
# Procedure, shortened: (§2)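 Luminescence generated by NanoLuc from substrate produced by living HEK293 cells served as the viability signal. Each value reflects the reading at its stated time point during continuous 40 h compound exposure at 37 C.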
# [5] = qHTS RealTime-Glo MT Cell Viability Assay in HepG2 cells - 40 hour (AID 1224870); also: nearly all actives have a fitted effect of over 50% in size
# Procedure, shortened: (§3)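 Real-time viability: cells seeded at 600 per well together with NanoLuc and cell-permeant prosubstrate, compounds added after 5 h incubation. Luminescence tracked at 0, 8, 16, 24, 32 and 40 h of exposure.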
# [6] = qHTS RealTime-Glo MT Cell Viability Assay in HEK293 cells - 16 hour (AID 1224872); also: nearly all actives have a fitted effect of over 50% in size
# Procedure, shortened: as §2
# [7] = qHTS RealTime-Glo MT Cell Viability Assay in HepG2 cells - 8 hour (AID 1224873); also: nearly all actives have a fitted effect of over 55% in size
# Procedure, shortened: as §3
# [8] = A CellTox Green Cytotoxicity Assay to monitor cytotoxicity in HepG2 cells - 16 hour (AID 1224876); also: nearly all actives have a fitted effect of over 45% in size
# Procedure, shortened: (§4)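 Continuous culture of HepG2 cells with a membrane-impermeant DNA dye; rising fluorescence marks dead cells. Compound exposure lasted up to 40 h at 37 C, with reads every 8 h from 0 h.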
# [9] = qHTS RealTime-Glo MT Cell Viability Assay in HepG2 cells - 32 hour (AID 1224877); also: nearly all actives have a fitted effect of over 55% in size
# Procedure, shortened: as §1
# [10] = A CellTox Green Cytotoxicity Assay to monitor cytotoxicity in HepG2 cells - 24 hour (AID 1224878); also: nearly all actives have a fitted effect of over 45% in size; as to Cytotoxicity: % is scaled to controls: 0 for no effect and ±100 for the full control effect
# Procedure, shortened: as §4
# [11] = A CellTox Green Cytotoxicity Assay to monitor cytotoxicity in HepG2 cells - 40 hour (AID 1224879); also: nearly all actives have a fitted effect of over 40% in size
# Procedure, shortened: as §4
# [12] = qHTS RealTime-Glo MT Cell Viability Assay in HEK293 cells - 0 hour (AID 1224880); also: nearly all actives have a fitted effect of over 45% in size
# Procedure, shortened: (§5)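 qHTS format; HEK293 cells with NanoLuc/prosubstrate reagent, 37 C/5% CO2 for 5 h pre-dosing; compounds 23 nL in DMSO; luminescence at each time point reflects viable cells.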
# [13] = A CellTox Green Cytotoxicity Assay to monitor cytotoxicity in HEK293 cells - 32 hour (AID 1224881); also: nearly all actives have a fitted effect of over 40% in size
# Procedure, shortened: (§6)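 Each value comes from one timepoint of a single continuous run in which HEK293 cells with CellTox Green were exposed to compound for up to 40 h at 37 C, dye fluorescence rising with cell death.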
# [14] = qHTS assay to identify small molecule agonists of H2AX - cell viability counter screen (AID 1224847; calls by dose curve; also: nearly all actives have a fitted effect of over 30% in size)
# Procedure, shortened: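 Viability of CHO-K1 (wild type) cells after 3 hr compound exposure was measured by CellTiter-Glo luminescence.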
# [15] = A CellTox Green Cytotoxicity Assay to monitor cytotoxicity in HEK293 cells - 40 hour (AID 1224871); also: nearly all actives have a fitted effect of over 45% in size
# Procedure, shortened: as §6
# [16] = qHTS RealTime-Glo MT Cell Viability Assay in HEK293 cells - 40 hour (AID 1224874); settings: RealTime-Glo luminescence; max response: stronger effect = lower value; also: nearly all actives have a fitted effect of over 50% in size; as to max response: % is scaled to controls: 0 for no effect and ±100 for the full control effect
# Procedure, shortened: as §5
# [17] = A CellTox Green Cytotoxicity Assay to monitor cytotoxicity in HEK293 cells - 24 hour (AID 1224875); also: nearly all actives have a fitted effect of over 45% in size
# Procedure, shortened: as §6
# [18] = qHTS assay to identify small molecule antagonists of the estrogen related receptor (ERR) signaling pathway from Tox21 library (AID 1224848); also: nearly all actives have a fitted effect of over 50% in size
# Procedure, shortened: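 Reading was by luminescence 30 min after ONE-Glo addition. Before that, ERR cells at 2,000 per well had rested 6 h at 37 C/5% CO2 and then received pin-tooled compounds in DMSO for 18 h at 37 C.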
# Potency is read from the fitted curve at half-maximal effect; tags tell the direction and shape of the fitted curve or compound fluorescence and quenching.
smiles,measurement,setting,value
Nc1ccc(N)c(Cl)c1,Potency,[1],"inconclusive: 50.4 µM [falling, partial curve] and inconclusive: 50.5 µM [falling, partial curve]"
same,Potency,[2],inactive
same,Potency,[3],"inconclusive: 54.9 µM [falling, single point]"
same,Potency,[4],"inconclusive: 54.9 µM [cytotoxic, single point]"
same,Potency,[5],"inconclusive: 54.9 µM [falling, single point]"
same,Potency,[6],"inconclusive: 61.7 µM [cytotoxic, single point]"
same,Potency,[7],active: 49 µM
same,Potency,[8],active: 27.5 µM
same,Potency,[9],"inconclusive: 54.9 µM [cytotoxic, single point]"
same,Potency,[10],active: 43.6 µM
same,Potency,[11],active: 43.6 µM
same,Potency,[12],"inconclusive: 24.5 µM [falling, partial curve, poor fit]"
same,Potency,[13],inactive and active: 27.5 µM
CCCCCCCCCCCC[N+](C)(C)CCCCCCCCCCCC,Potency,[1],"inconclusive: 50.5 µM [activator, single point]"
same,Potency,[2],"inconclusive: 24.5 µM [falling, full curve]"
same,Potency,[14],active: 28.4 µM
same,Potency,[15],active: 17.4 µM
same,Potency,[7],active: 12.3 µM
same,Potency,[16],active: 3.89 µM
same,Potency,[17],active: 15.5 µM
same,Potency,[8],active: 9.77 µM
same,Potency,[10],active: 7.76 µM
same,Potency,[11],active: 7.76 µM
CN(C)c1ccc(N=NS(=O)(=O)O)cc1,Potency,[1],"inconclusive: 6.71 µM [falling, full curve]"
same,Potency,[2],"inconclusive: 0.183 µM [falling, single point]"
same,Potency,[14],active: 40.1 µM
same,Potency,[4],"inconclusive: 9.77 µM [cytotoxic, full curve]"
same,Potency,[7],"inconclusive: 23 µM [phenotype inactive, partial curve]"
same,Potency,[17],inactive
same,Potency,[11],inactive
CCOc1ccccc1C(N)=O,Potency,[1],"inconclusive: 61.9 µM [activator, single point]"
same,Potency,[2],"inconclusive: 26.8 µM [falling, single point]"
same,Potency,[5],inactive
same,Potency,[17],"inconclusive: 0.338 µM [activator, partial curve]"
O=[N+]([O-])c1ccc(O)c2ncccc12,Potency,[1],inconclusive: 49.2 µM [partial curve]
same,Potency,[2],inconclusive: 0.477 µM [full curve]
same,Potency,[4],"inconclusive: 10.7 µM [cytotoxic, single point]"
same,Potency,[8],"inconclusive: 0.0849 µM [activator, partial curve, poor fit]"
C=CCCC=C,Potency,[1],"inconclusive: 116 µM [activator, single point]"
same,Potency,[14],inactive
C#C[C@]1(O)CC[C@H]2[C@@H]3[C@H](C)CC4=C(CCC(=O)C4)[C@H]3CC[C@@]21C,activation (H2AX phosphorylation),[1],inconclusive: 7.36% [at 70.9 µM]
same,Potency,[14],"inconclusive: 55.2 µM [cytotoxic, single point]"
same,Potency,[18],active: 23.7 µM
same,max response,[16],inactive: -25.5%
Nc1nc2ccc([N+](=O)[O-])cc2s1,Potency,[1],"inconclusive: 101 µM [falling, partial curve, poor fit]"
same,Potency,[2],inconclusive: 54.9 µM
same,Potency,[4],"inconclusive: 24.5 µM [cytotoxic, partial curve]"
same,Potency,[16],"inconclusive: 27.5 µM [cytotoxic, partial curve]"
same,Potency,[8],active: 49 µM
CCC(C)(C)C(=O)O[C@H]1C[C@@H](C)C=C2C=C[C@H](C)[C@H](CC[C@@H]3C[C@@H](O)CC(=O)O3)[C@H]21,Potency,[1],"inconclusive: 40.1 µM [rising, partial curve, poor fit]"
same,Potency,[2],inconclusive: 26.8 µM [single point]
same,Potency,[15],"inactive and inconclusive: 26.8 µM [activator, single point]"
same,Potency,[17],"inconclusive: 26.8 µM [activator, single point]"
same,Potency,[13],"inconclusive: 26.8 µM [activator, single point]"
CN(N=O)C(=O)N[C@@H]1[C@@H](O)[C@H](O)[C@@H](CO)O[C@@H]1O,activation (H2AX phosphorylation),[1],inconclusive: 7.39% and inconclusive: 4.53%
same,Potency,[2],inactive
same,Potency,[8],"inconclusive: 10.7 µM [activator, single point]"
same,Potency,[10],"inactive and inconclusive: 10.7 µM [activator, single point]"
same,Potency,[11],"inconclusive: 10.7 µM [activator, single point]"
CN1CCCC(CC2c3ccccc3Sc3ccccc32)C1 (stereo unspecified),activation (H2AX phosphorylation),[1],inconclusive: 10.9% [at 70.9 µM]
same,Potency,[14],"inconclusive: 55.2 µM [cytotoxic, single point]"
same,Potency,[18],"inconclusive: 33.5 µM [inhibitor, single point]"
same,Potency,[6],"inconclusive: 26.8 µM [cytotoxic, single point]"
same,Potency,[17],active: 23.9 µM
same,Potency,[12],"inconclusive: 10.7 µM [rising, partial curve]"
same,Potency,[13],active: 23.9 µM
